# From PubChem BioAssay AID686979 (National Center for Advancing Translational Sciences (NCATS), 2013)
# Values joined by “and” are separate entries in the source; they are usually repeats but may differ in a detail not shown here. Equal values may be shown once. Among all 420,000 compounds or so, about 50,000 (12%) were called active. The shares of active, inactive and inconclusive entries below differ from those in the screen. The call rests on the fitted dose curve; in most records, active means well fitted inhibition curve with a large enough effect; inconclusive means small, poorly fitted or top-dose-only effect; inactive means flat fitted curve, though single readings scatter. Potencies of inconclusive entries are doubtful fits and often do not repeat.
# Test: qHTS for Inhibitors of human tyrosyl-DNA phosphodiesterase 1 (TDP1): qHTS in cells in presence of CPT; further: nearly all actives have a fitted effect of over 55% in size
# Conditions: chicken DT40 Tdp1-/-;hTDP1 cells + 20 nM CPT, ATP luminescence, 48 h; activity change, negative = growth inhibition: at 46.2 µM (top of the series) unless noted
# Summary of the method: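 Cell growth measured by CellTiter-Glo luminescence after a minimum 48 h, 37 C compound exposure with 20 nM CPT in Tdp1-knockout DT40 cells stably expressing hTDP1, seeded 400/well; qHTS titration format.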
# On the % scale 0 is the no-effect control and ±100 the full control effect; potency means the concentration at half of the fitted maximal effect; tags describe the fitted curve by direction and shape.
SMILES,Potency,"activity change, negative = growth inhibition"
COc1ccc(Oc2ncc(CN3CCN(c4ccccc4)CC3)s2)cc1,"inconclusive: 23.1 µM [inhibitor, single point]",–
Cc1ccccc1OCC(=O)OCC(=O)Nc1cc(S(C)(=O)=O)ccc1Cl,–,inactive: -1.79%
COc1ccc(C(=O)C2CCCN(C(=O)c3ccc4nccnc4c3)C2)c(C)c1 (stereo not drawn),"inconclusive: 29.1 µM [inhibitor, single point]",–
CC1CN(S(=O)(=O)c2ccc(C(=O)Nc3nnc(-c4ccco4)o3)cc2)CC(C)O1 (stereo not drawn),active: 23.1 µM,–
O=C1c2ccccc2C(Nc2ccccc2)N1c1ccc(Cl)cn1 (stereo not drawn),"inconclusive: 29.1 µM [inhibitor, single point]",–
O=C(c1cc([N+](=O)[O-])cc([N+](=O)[O-])c1)N1CCN(Cc2ccc3c(c2)OCO3)CC1,"inconclusive: 29.1 µM [inhibitor, single point]",–
O=C(COc1ccc2ccccc2c1)N1CCCC1,"inconclusive: 16.4 µM [inhibitor, single point]",–
Cn1c2ccccc2c2cnn(CC(=O)NCCCN3CCN(c4ccccc4F)CC3)c(=O)c21,"inconclusive: 23.1 µM [inhibitor, single point] and inconclusive: 18.4 µM [inhibitor, single point]",–
Cc1ccc([C@H]2N[C@]3(CCCN(Cc4ccc(Cl)cc4)C3=O)[C@H]3C(=O)N(C)C(=O)[C@@H]23)cc1,"inconclusive: 23.1 µM [inhibitor, single point]",–
CC(=O)N1N=C(c2cccs2)CC1c1ccc(Br)cc1 (stereo not drawn),"inconclusive: 29.1 µM [inhibitor, single point]",–
Cc1ccc(C(=O)N(C)Cc2ccc(N3CCOCC3)cc2)cc1S(=O)(=O)NCc1ccccc1,"inconclusive: 14.6 µM [inhibitor, partial curve]",–
CC(=O)c1ccc(N2CCN(C(=O)Nc3ccc(C(C)C)cc3)CC2)cc1,"inconclusive: 20.6 µM [inhibitor, single point] and inconclusive: 18.4 µM [inhibitor, single point]",–
O=C(c1ccc(Cl)c(Cl)c1)N1CCC(=O)N(C(COCc2ccc(Cl)cc2)Cc2ccccc2)CC1 (stereo not drawn),"inconclusive: 18.4 µM [inhibitor, single point]",–
CC(NC1CCCCC1)C(=O)NN=C(c1ccccc1)c1ccccc1 (stereo not drawn),"inconclusive: 29.1 µM [inhibitor, single point]",–
CCN(CC)N=Nc1[nH]nc2nc(C)cc(C)c12,"inconclusive: 29.1 µM [inhibitor, single point]",–
Cc1ccc2oc(=O)c3cnn(CC(=O)N(Cc4ccco4)C4CCCCC4)c3c2c1,"inconclusive: 23.1 µM [inhibitor, single point]",–
CC(C)c1ccc2occ(CC(=O)N(Cc3ccc(F)cc3)C3CCS(=O)(=O)C3)c2c1 (stereo not drawn),active: 18.4 µM,–
C[C@@H]1CCC2[C@](C)(CO)[C@@H](O)CC[C@]2(C)[C@@]12C[C@](CO)(CC(=O)O)CO2 (stereo partly drawn),–,inactive: 25.8%
CC(C)CCn1c(=O)c2ccccc2n2c(CN3CCOCC3)nnc12,"inconclusive: 32.6 µM [inhibitor, single point]",–

SMILES,Potency,"activity change, negative = growth inhibition"
C=CCN(c1ccccc1)S(=O)(=O)c1cccc(C(=O)NCc2ccncc2)c1,"inconclusive: 25.9 µM [inhibitor, single point]",–
CCN(CC)S(=O)(=O)c1ccc(OCC(=O)NCc2ccco2)cc1,"inconclusive: 29.1 µM [inhibitor, single point]",–
CC(=O)Nc1ccccc1N(CC(O)Cn1c2ccccc2c2ccccc21)S(=O)(=O)c1ccc(C)cc1 (stereo not drawn),"inconclusive: 23.1 µM [inhibitor, single point]",–
Cc1ccc(S(=O)(=O)N2[C@@H](c3ccc(Cl)cc3)C(C(=O)O)=CC[C@H]2c2ccc(Cl)cc2)cc1,"inconclusive: 23.1 µM [inhibitor, single point]",–
O=C(Nc1ccccc1)N1CCn2c1nc1ccccc12,"inconclusive: 29.1 µM [inhibitor, single point]",–
COc1ccc(NC(=O)c2ccco2)cc1NC(=O)c1c(OC)cccc1OC,inactive,–
CC(C)(C)n1nnnc1C(c1cccc(C#N)c1)N1CCCCCC1 (stereo not drawn),"inconclusive: 32.6 µM [inhibitor, single point]",–
COc1ccc(NC(=O)c2nc[nH]c2C(=O)N[C@H](C)c2ccccc2)cc1,"inconclusive: 29.1 µM [inhibitor, single point]",–
Cc1ccccc1NC(=O)c1c(-c2ccccc2)noc1C,active: 11.6 µM,–
Cn1c(SCC(=O)NC(c2ccccc2)c2ccccc2)nnc1-c1cccs1,"inconclusive: 29.1 µM [inhibitor, single point]",–
Cc1ccc(C(NC(=O)N2CCOCC2)=C(Cl)Cl)cc1F,active: 6.51 µM,–
CC(=O)c1ccc(N2CCN(C(=O)c3c(-c4ccccc4Cl)noc3C)CC2)cc1,"inconclusive: 10.3 µM [inhibitor, partial curve]",–
CCOc1ccc(CN2C(=O)c3ccccc3C2C(=O)NCCc2ccc(OC)c(OC)c2)cc1 (stereo not drawn),"inconclusive: 29.1 µM [inhibitor, single point]",–
CCN(C(=O)c1cccs1)c1nnc(-c2ccncc2)s1,"inconclusive: 18.4 µM [inhibitor, partial curve]",–
COc1cccc(/C=C/C(=O)OCC(=O)NCCNC(=O)COC(=O)/C=C/c2cccc(OC)c2)c1,"inconclusive: 16.4 µM [inhibitor, single point]",–
COC(=O)c1cn(C(=O)c2ccc3c(c2)OCO3)c2ccccc12,"inconclusive: 29.1 µM [inhibitor, single point]",–
COc1ccc(CNC(=O)Cc2c(C)c3cc4c(C)coc4c(C)c3oc2=O)cc1OC,"inconclusive: 29.1 µM [inhibitor, single point]",–
COc1cccc(N2CCN(S(=O)(=O)c3cc4c(cc3C)N(C)CCO4)CC2)c1,"inconclusive: 25.9 µM [inhibitor, single point]",–
COc1ccc(Cn2c(CO)cnc2SCc2ccccc2C)cc1,"inconclusive: 29.1 µM [inhibitor, single point]",–
